Measurements reported in PubChem BioAssay AID504333 (National Center for Advancing Translational Sciences (NCATS), 2011).
Among all 360,000 compounds or so, about 16,000 (4.4%) were called active. This list was built around the results that the source calls inconclusive (neither active nor inactive); the mix of calls is not that of the screen. Calls come from the whole dose curve; as a rule, active = well fitted inhibition curve with a large enough effect; inconclusive = small, poorly fitted or top-dose-only effect; inactive = no such curve, though single readings can be large or run the other way. Where the call is inconclusive, the potency comes from a doubtful curve fit.

Biological target: Bromodomain adjacent to zinc finger domain protein 2B (Homo sapiens) (UniProt Q9UIF8)
Sequence of UniProt Q9UIF8 (Q9UIF8 whole entry, looked up, the tested form may be a part): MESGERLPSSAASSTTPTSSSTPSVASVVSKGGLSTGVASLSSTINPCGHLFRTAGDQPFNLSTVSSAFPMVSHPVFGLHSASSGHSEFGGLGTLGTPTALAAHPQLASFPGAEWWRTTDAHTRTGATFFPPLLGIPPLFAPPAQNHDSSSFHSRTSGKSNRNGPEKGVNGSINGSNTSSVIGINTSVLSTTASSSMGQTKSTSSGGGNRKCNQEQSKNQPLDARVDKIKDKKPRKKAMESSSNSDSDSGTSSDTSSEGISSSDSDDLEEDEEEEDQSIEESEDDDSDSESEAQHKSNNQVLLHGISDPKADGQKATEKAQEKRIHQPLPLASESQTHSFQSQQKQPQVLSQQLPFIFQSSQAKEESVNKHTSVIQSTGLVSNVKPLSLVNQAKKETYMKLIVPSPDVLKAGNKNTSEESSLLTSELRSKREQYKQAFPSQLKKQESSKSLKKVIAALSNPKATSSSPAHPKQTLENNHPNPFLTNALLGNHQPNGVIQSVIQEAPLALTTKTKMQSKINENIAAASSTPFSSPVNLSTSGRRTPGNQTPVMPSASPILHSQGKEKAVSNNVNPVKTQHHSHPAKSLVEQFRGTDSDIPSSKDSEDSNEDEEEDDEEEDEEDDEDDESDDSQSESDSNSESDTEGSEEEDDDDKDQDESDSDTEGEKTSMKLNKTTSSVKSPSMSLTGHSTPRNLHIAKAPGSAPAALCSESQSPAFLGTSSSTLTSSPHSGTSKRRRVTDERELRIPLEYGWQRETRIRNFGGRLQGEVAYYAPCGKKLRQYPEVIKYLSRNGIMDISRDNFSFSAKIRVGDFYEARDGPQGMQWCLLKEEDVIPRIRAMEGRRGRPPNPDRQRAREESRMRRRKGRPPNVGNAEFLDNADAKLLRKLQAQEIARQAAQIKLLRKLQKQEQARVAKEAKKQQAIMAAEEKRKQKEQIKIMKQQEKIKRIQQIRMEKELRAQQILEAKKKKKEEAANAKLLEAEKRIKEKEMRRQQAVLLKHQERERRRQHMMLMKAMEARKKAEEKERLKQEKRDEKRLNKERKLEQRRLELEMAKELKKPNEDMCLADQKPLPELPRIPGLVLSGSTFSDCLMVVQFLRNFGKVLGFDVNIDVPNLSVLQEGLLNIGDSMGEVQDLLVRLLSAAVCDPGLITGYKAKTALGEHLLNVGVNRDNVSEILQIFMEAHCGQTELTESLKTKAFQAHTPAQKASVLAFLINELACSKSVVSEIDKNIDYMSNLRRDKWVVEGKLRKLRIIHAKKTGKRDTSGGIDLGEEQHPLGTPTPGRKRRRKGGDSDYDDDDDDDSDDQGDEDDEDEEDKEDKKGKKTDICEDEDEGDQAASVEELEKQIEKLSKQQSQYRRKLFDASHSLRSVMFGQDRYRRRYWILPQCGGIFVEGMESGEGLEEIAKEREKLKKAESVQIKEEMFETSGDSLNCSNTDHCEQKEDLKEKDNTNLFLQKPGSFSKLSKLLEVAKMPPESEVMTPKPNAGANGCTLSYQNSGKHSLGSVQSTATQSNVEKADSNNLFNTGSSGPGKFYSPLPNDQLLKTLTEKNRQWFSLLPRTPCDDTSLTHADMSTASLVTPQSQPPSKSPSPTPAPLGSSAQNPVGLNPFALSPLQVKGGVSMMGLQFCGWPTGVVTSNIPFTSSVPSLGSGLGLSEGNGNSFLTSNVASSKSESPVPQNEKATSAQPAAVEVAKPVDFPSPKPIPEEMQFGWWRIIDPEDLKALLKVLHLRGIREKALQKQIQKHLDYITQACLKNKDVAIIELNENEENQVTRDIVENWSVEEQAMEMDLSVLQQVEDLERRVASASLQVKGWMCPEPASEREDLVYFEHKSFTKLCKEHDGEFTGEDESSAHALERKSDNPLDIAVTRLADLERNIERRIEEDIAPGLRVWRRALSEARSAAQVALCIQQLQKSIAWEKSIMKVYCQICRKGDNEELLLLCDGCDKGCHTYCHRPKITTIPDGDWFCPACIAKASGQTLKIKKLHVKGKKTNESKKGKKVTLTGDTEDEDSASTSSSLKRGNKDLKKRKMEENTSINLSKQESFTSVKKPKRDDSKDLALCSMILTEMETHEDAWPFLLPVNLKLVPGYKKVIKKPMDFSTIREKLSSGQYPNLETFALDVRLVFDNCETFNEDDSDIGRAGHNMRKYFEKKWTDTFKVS
Experiment: qHTS Assay for Inhibitors of BAZ2B; note: nearly all actives have a fitted effect of over 60% in size
Conditions: AlphaScreen BAZ2B-H3K14Ac peptide displacement; series mostly up to 114 µM
Method in brief: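 Inhibition is scored as reduced AlphaScreen emission. The BAZ2B/b-H3(5-23)K14Ac complex (50 nM each) in PBS pH 7.4, 0.01% Tween-20 meets compound (up to 110 uM) for 30 min at RT before bead addition.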
Potency is the fitted concentration of half-maximal effect; tags give direction and shape of the fitted curve.

Compound	Potency
COC(=O)C1=C(C)N(Cc2ccccc2)C(=NCc2ccc(OC)cc2)N[C@H]1c1ccccc1	inconclusive: 79.4 µM [inhibitor, single point]
O=C(CSCc1cnn(-c2ccccc2)c1-n1cccc1)N1CCN(Cc2ccccc2)CC1	inconclusive: 39.8 µM [inhibitor, partial curve]
COc1ccc(-c2nn(-c3ccccc3)cc2C(=O)O)cc1OC	inactive
COc1ccc(C(=O)N/N=C(\C)c2ccc3c(c2)C2C=CCC2C(c2ccccc2)N3)cc1 (stereo unspecified)	inconclusive: 79.4 µM [inhibitor, single point]
COc1ccc(C2c3[nH]c4ccccc4c3CCN2C(=O)c2ccc(=O)n(C)n2)c(F)c1 (stereo unspecified)	inconclusive: 39.8 µM [inhibitor, full curve, poor fit]
Cc1cccc2sc(NC(=O)CSc3nnnn3C)nc12	inconclusive: 79.4 µM [inhibitor, single point]
CCc1cc(C(=O)N(Cc2ccccc2)c2c(N)n(CCOC)c(=O)[nH]c2=O)sc1C	inactive
Cc1ccc(Nc2c(-c3ccc(C)o3)nc3cnccn23)cc1	inconclusive: 89.1 µM [inhibitor, single point]
O=[N+]([O-])c1cccc(OCCN2CCC(Cc3ccccc3)CC2)c1	active: 56.2 µM
Cc1cc(Cl)ccc1OCC(=O)N(Cc1ccc(N(C)C)cc1)C1CCS(=O)(=O)C1 (stereo unspecified)	active: 35.5 µM
COc1ccc(S(=O)(=O)N(C)c2ccc(C(=O)N3CCN(c4ccccc4)CC3)cc2)cc1OC	inconclusive: 56.2 µM [inhibitor, single point]
O=C(CCC(=O)NC1CCCCCC1)Nc1nnc(C(F)(F)F)s1	inconclusive: 3.98 µM [inhibitor, single point]
CC(C)(C)C(=O)Cn1c(=N)n(Cc2ccccc2Cl)c2ccccc21	inconclusive: 39.8 µM [inhibitor, single point]
CC1=C(C(=O)Nc2cc(Cl)ccc2C)C2(CCCCC2)OC1=O	inactive
COc1cccc(C(=O)NCC(=O)OCc2ccc(F)cc2Cl)c1	inactive
CNC(=O)COC(=O)c1c2c(nc3ccccc13)CCC2	active: 50.1 µM
CSc1nsc(SC)c1C(=O)NCCNS(=O)(=O)c1ccc(C)cc1	active: 50.1 µM
Fc1ccc(N/N=C/c2ccc(N3CCOCC3)cc2)c(F)c1	inconclusive: 44.7 µM [inhibitor, partial curve]
O=C(/C=C/c1cn(CC(O)CN2CCCCC2)c2ccccc12)c1ccccc1 (stereo unspecified)	inconclusive: 79.4 µM [inhibitor, partial curve]
Cc1cc(C)n(-c2nc3nonc3nc2Nc2cccc(C)c2C)n1	inactive
CN(C)c1ccc(C2C3=C(CCCC3=O)OC3=C2C(=O)CCC3)cc1	inactive
Cc1sc2nc(CSc3ccc([N+](=O)[O-])c(C(F)(F)F)c3)[nH]c(=O)c2c1C	inactive
COc1ccc(C2CC(=O)N3CN(c4ccc(C)c(Cl)c4)CSC3=C2C#N)cc1 (stereo unspecified)	inconclusive: 50.1 µM [inhibitor, partial curve]
CCOC(=O)N1CCC(NC(=O)Cn2ncc3ccccc32)CC1	inactive

Compound	Potency
O=C(O)CCC(=O)NNC(=O)COc1cccc(Cl)c1	inactive
Cc1nc2sc(C(=O)O)c(N)c2c2c1COC(C)(C)C2	inactive
COc1ccc(-n2c(=O)c3c4c(sc3n(Cc3ccc(C)cc3C)c2=O)CCC4)c(OC)c1	inconclusive: 7.94 µM [inhibitor, full curve]
Cc1ccc(/C=C(\NC(=O)c2ccc(C)cc2)c2nc(=S)[nH][nH]2)cc1	inactive
Cc1cccc(C(=O)Nc2nc3nc(-c4ccccc4)cc(=O)n3[nH]2)c1	inconclusive: 89.1 µM [inhibitor, single point]
CCCCCC(=O)Nc1cccc(C2=NOC3(C2)C[C@@H](C(N)=O)N(C(=O)c2ccc(OC)cc2)C3)c1 (stereo partly specified)	inconclusive: 89.1 µM [inhibitor, single point]
CC(=O)Nc1ccc2c3c(cccc13)C(=O)N(c1ccccc1)C2=O	inactive
CCN1CCN(c2nc(-c3ccccn3)nc3ccccc23)CC1	inconclusive: 11.2 µM [inhibitor, partial curve]
Cc1nc2nc(-c3cccnc3)[nH]n2c(=O)c1C	inconclusive: 89.1 µM [inhibitor, single point]
COCCNC(=O)C(c1ccccc1C)N(C(=O)Cn1nnc2ccccc21)c1cccnc1 (stereo unspecified)	inactive
Cn1cc(Br)c(C(=O)Nc2sc3c(c2C#N)CCC3)n1	inactive
CCC(=O)NC(c1cccs1)c1cc(Cl)c2ccccc2c1O (stereo unspecified)	inconclusive: 8.91 µM [inhibitor, single point]
O=C1C2=C(C(=O)c3ccccc31)C1O[C@](c3ccsc3)(Cc3c1ccc1ccccc31)O2	active: 11.2 µM
Cc1ccccc1CSCC(=O)N1CCN(c2ccccc2)CC1	inconclusive: 89.1 µM [inhibitor, single point]
CN(Cc1ccccc1)c1nc(N)c([N+](=O)[O-])c(NCc2ccccc2)n1	inconclusive: 15.8 µM [inhibitor, full curve, poor fit]
COc1ccc(N/C(=C(/C(Cl)=C(Cl)Cl)[N+](=O)[O-])n2nnc3ccccc32)cc1	active: 50.1 µM
CC(C)c1ccc(CNc2nnnn2C)cc1	inconclusive: 89.1 µM [inhibitor, single point]
COc1ccc(N2CCN(CC(O)COc3ccccc3[N+](=O)[O-])CC2)cc1 (stereo unspecified)	inconclusive: 79.4 µM [inhibitor, single point]
NC(=O)[C@@H]1CCCNc2c(I)cc([N+](=O)[O-])cc2C(=O)N[C@@H](Cc2ccccc2)C(=O)N[C@@H](Cc2cnc[nH]2)C(=O)N1	active: 50.1 µM
COCC(=O)N(C)c1nnc(-c2ccccn2)s1	active: 56.2 µM
Cc1ccc(Cl)cc1N1CCN(C(=O)c2ccc(NS(=O)(=O)c3c(C)noc3C)cc2)CC1	inconclusive: 70.8 µM [inhibitor, single point]
Cc1nc2ccc(C(=O)O)cc2c2c1CC(C)S2 (stereo unspecified)	active: 70.8 µM
Cc1ccc(C(=O)N/N=C/c2ccc(N3CCOCC3)cc2)c(C)c1	inactive
O=C1C(=O)N(C2CCN(S(=O)(=O)c3ccccc3)CC2)CCN1Cc1ccccc1	inactive

Compound	Potency
O=S(=O)(Nc1nc(-c2sccc2Cl)cs1)c1cc(Cl)ccc1Cl	active: 50.1 µM
Cc1c(CN2CCN(CC(C)C)C(CCO)C2)[nH]c2ccc(Cl)cc12 (stereo unspecified)	inconclusive: 63.1 µM [inhibitor, single point]
CCOc1ccc2[nH]c3c(N4CCc5ccccc5C4)ncnc3c2c1	inconclusive: 50.1 µM [inhibitor, partial curve]
O=C(CCCSc1ccccc1)Nc1ccc(Cl)c(S(=O)(=O)N2CCOCC2)c1	inactive
C(=N/Nc1cc(N2CCOCC2)nc(N2CCOCC2)n1)/c1ccccc1	inconclusive: 89.1 µM [inhibitor, single point]
O=C1C=C(Nc2ccc(O)cc2)C(=O)c2ccccc21	active: 28.2 µM
COc1ccc(NC(C)C(=O)Nc2ccc(C#N)cc2)cc1Cl (stereo unspecified)	inconclusive: 89.1 µM [inhibitor, single point]
Cc1ccc(C(C[N+](=O)[O-])c2c(C)[nH]n(-c3ccccc3)c2=O)cc1 (stereo unspecified)	inconclusive: 89.1 µM [inhibitor, single point]
COc1ccccc1NC(=O)Nc1ccccc1C(=O)NCCCN1CCOCC1	inconclusive: 89.1 µM [inhibitor, single point]
O=C1c2cccc3c(N4CCOCC4)c([N+](=O)[O-])cc(c23)C(=O)N1c1cccc2ccccc12	inconclusive: 7.94 µM [inhibitor, full curve]
Cc1sc(NC(=O)C2CCCCC2C(=O)O)c(C(N)=O)c1-c1ccccc1 (stereo unspecified)	inactive
CCOC(=O)c1c(NC(=O)/C=C/C(=O)O)sc(C)c1-c1ccc(C(C)(C)C)cc1	inconclusive: 50.1 µM [inhibitor, partial curve]
O=C(O)c1ncn(Cc2ccccc2)c1C(=O)O	active: 31.6 µM
Cc1cccc(-n2c(O)c(C=NC3CCS(=O)(=O)C3)c3ccccc3c2=O)c1 (stereo unspecified)	inconclusive: 50.1 µM [inhibitor, partial curve]
CCCCn1cnc2c(=S)nc(N)[nH]c21	inconclusive: 50.1 µM [inhibitor, partial curve]
COc1ccc(/C=C(/NC(=O)c2ccco2)C(=O)N2CCc3ccccc32)cc1OC	inconclusive: 63.1 µM [inhibitor, partial curve]
COc1ccc(-c2nnc(SCC(=O)Nc3cc(OC)ccc3OC)nc2-c2ccc(OC)cc2)cc1	active: 7.94 µM
O=C(N/N=C\c1ccc(-c2ccccc2[N+](=O)[O-])o1)C1COc2ccccc2O1 (stereo unspecified)	inconclusive: 28.2 µM [inhibitor, full curve]
CSc1ccccc1NC(=O)CN(C)C(=O)CCc1c[nH]c2ccccc12	inconclusive: 70.8 µM [inhibitor, single point]
N#Cc1c(N)nc2c(c1-c1cccc(O)c1)CCCCCC2	inconclusive: 89.1 µM [inhibitor, single point]
O=C(Cc1ccccc1)Nc1ccc(NC(=O)c2cccnc2)cc1	inconclusive: 89.1 µM [inhibitor, single point]
N#Cc1ccccc1NC(=O)C(=O)NCCc1csc(-c2ccc(C(F)(F)F)cc2)n1	inactive
Cc1ccc(S(=O)(=O)NCC(=O)N(CC(=O)NC(C)(C)C)Cc2ccc3c(c2)OCO3)cc1	inactive
